Test results: PubChem BioAssay AID1460 (National Center for Advancing Translational Sciences (NCATS), 2008)
Hit rate of the full screen: of about 270,000 compounds, about 5,800 (2.1%) were called active. The shares of active, inactive and inconclusive entries below differ from those in the screen. The call rests on the fitted dose curve; in most records, active means well fitted inhibition curve with a large enough effect; inconclusive means small, poorly fitted or top-dose-only effect; inactive means flat fitted curve, though single readings scatter. Where the call is inconclusive, the potency comes from a doubtful curve fit.
Further: nearly all actives have a fitted effect of over 55% in size.
Potency means the concentration at half of the fitted maximal effect; tags describe the fitted curve by direction and shape.

Each compound was assayed against Microtubule-associated protein tau (Homo sapiens) (UniProt P10636) (assay: qHTS for Inhibitors of Tau Fibril Formation, Thioflavin T Binding). Conditions: recombinant tau K18 P301L (four-repeat tau fragment), heparin-induced fibrillization, ThT fluorescence; series mostly up to 57.4 µM.
Sequence of UniProt P10636 (P10636 whole entry, looked up, the tested form may be a part): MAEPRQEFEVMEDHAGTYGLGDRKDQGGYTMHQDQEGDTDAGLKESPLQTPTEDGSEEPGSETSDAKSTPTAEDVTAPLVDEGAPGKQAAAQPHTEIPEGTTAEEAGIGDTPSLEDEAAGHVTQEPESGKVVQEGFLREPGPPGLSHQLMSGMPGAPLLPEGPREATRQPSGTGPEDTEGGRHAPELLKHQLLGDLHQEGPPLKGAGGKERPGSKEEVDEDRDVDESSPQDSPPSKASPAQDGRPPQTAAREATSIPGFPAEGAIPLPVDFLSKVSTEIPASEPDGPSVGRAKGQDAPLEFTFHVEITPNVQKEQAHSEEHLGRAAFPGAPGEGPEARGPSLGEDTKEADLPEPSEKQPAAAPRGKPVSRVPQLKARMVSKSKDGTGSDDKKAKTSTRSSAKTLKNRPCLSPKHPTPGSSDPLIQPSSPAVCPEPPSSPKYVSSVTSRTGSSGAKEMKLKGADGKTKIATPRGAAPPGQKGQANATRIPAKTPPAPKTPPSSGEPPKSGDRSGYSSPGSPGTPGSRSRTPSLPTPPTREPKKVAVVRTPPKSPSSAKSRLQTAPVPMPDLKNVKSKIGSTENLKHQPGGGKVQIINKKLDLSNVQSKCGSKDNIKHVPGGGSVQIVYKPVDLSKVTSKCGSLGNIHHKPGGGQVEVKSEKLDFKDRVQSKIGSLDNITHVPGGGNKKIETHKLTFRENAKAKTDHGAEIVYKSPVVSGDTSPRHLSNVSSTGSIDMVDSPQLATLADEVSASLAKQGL
Method in brief: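 Recombinant human tau K18 fragment […] carrying P301L, 15 uM unlabeled plus 0.24 uM Alexa 594-labeled, was fibrillized with 20 uM heparin in 100 mM sodium acetate pH 7 for 6 hr at 37 C; 30 uM ThT fluorescence read after 1 hr.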
With `CSc1nsc(SCC(=O)N2CCN(c3ccccc3)CC2)n1` the Potency was inconclusive: 14.1 µM [inhibitor, partial curve].
`Cc1ccc(CNC(=O)c2ccc3c(c2)NC(=O)C(CS(=O)(=O)Cc2ccc(F)cc2)N3)cc1` (configuration not stated) was tested, and the Potency was inconclusive: 17.8 µM [inhibitor, single point].
For `COC(=O)c1ccc(/C=C(\C#N)c2nc3ccccc3s2)cc1`, the Potency was active: 7.94 µM.
With `Cc1csc(NC(=O)CCCc2cccs2)n1` the Potency was “inactive”.
With `CCOC(=O)c1[nH]c(C)c(C(=O)N2CCc3c([nH]c4ccccc34)C2c2ccccn2)c1C` (configuration not stated) the Potency was inconclusive: 20 µM [inhibitor, single point].
`Nc1nnnn1CC(=O)N/N=C/c1cccs1` was tested, and the Potency was “inactive”.
With `COC(=O)NC(/C(C(=O)OC)=C(\C)NCc1ccccc1)c1ccc(F)cc1` (configuration not stated) the Potency was inconclusive: 7.94 µM [inhibitor, single point].
In the case of `CCc1ccc(NC(=O)c2cc3c(COC(C)=O)cnc(C)c3oc2=O)cc1`, the Potency is reported as inconclusive: 8.91 µM [inhibitor, partial curve].
With `COc1cccc([C@@H]2Oc3ccc(OC)cc3C(=O)[C@H]2OC(=O)Nc2ccc(C)c(Br)c2)c1` the Potency was “inactive”.
In the case of `O=C1/C(=C/c2ccc(N3CCCC3)cc2)NC(=S)N1C1CC1`, the Potency is reported as inconclusive: 3.55 µM [inhibitor, full curve].
For `COCCNC(=O)NC12CC3CC(CC(C3)C1)C2`, the Potency was “inactive”.
With `O=C(N=Nc1c(O)[nH]c2ccc([N+](=O)[O-])cc12)c1cc(-c2ccccc2Cl)nc2ccccc12` the Potency was inconclusive: 20 µM [inhibitor, single point].
`COc1ccc(Nc2nc(Nc3ccc(OC)cc3OC)nc(N3CCN(C)CC3)n2)c(OC)c1` was tested, and the Potency was inconclusive: 14.1 µM [inhibitor, partial curve].
With `CCCS(=O)(=O)c1c(S(=O)(=O)CCC)c2cnccn2c1C(=O)c1ccc(CC)cc1` the Potency was inconclusive: 28.2 µM [inhibitor, single point].
In the case of `COc1cccc2cc(C(=O)C3=C(O)C(=O)N(Cc4ccco4)C3c3cccnc3)oc12` (configuration not stated), the Potency is reported as inconclusive: 39.8 µM [inhibitor, single point].
In the case of `CCOc1ccccc1N1CCN(C/C=C/c2ccc(N(C)C)cc2)CC1`, the Potency is reported as inconclusive: 0.178 µM [inhibitor, partial curve].
In the case of `Cc1ccc(OCCn2c(=O)n(C)c3ccccc32)cc1`, the Potency is reported as “inactive”.
For `Cn1c(=O)n(C)c2cc(/C=N/NC(N)=S)ccc21`, the Potency was “inactive”.
`CCOC(=O)c1ccc(C(=O)OCC)c(NC(=S)Nc2ccc([N+](=O)[O-])cc2OC)c1` was tested, and the Potency was inconclusive: 22.4 µM [inhibitor, partial curve].
`CC1(C)CC[C@]2(C(=O)O)C(O)C[C@@]3(C)C(=CCC4[C@@]5(C)CCC(O)C(C)(C)C5CC[C@@]43C)C2C1` (some centres not stated) was tested, and the Potency was “inactive”.
In the case of `COc1ccc(-c2cn3c(n2)sc2cc(C(=O)Nc4c(C)cccc4C)ccc23)cc1`, the Potency is reported as “inactive”.
In the case of `Cc1ccccc1OCc1nnc(SCC(=O)Nc2ccc(N3CCOCC3)c(Cl)c2)n1C`, the Potency is reported as inconclusive: 14.1 µM [inhibitor, partial curve].
`Cc1cc(C)cc(Nc2nc3ccccc3nc2-n2nc(C)cc2C)c1` was tested, and the Potency was “inactive”.
For `Cc1cccc(OCc2n[nH]c(=S)o2)c1`, the Potency was “inactive”.
In the case of `COC(=O)c1sc(-c2ccccc2)cc1NC(=O)Nc1ccccc1Cl`, the Potency is reported as “inactive”.
With `O=C1C=C(c2ccccc2)C[C@H](c2cccs2)[C@H]1n1nnc([N+](=O)[O-])n1` the Potency was inconclusive: 14.1 µM [inhibitor, partial curve].
In the case of `Cn1nnc2cc(NC(=O)N3CCN(c4ccccn4)CC3)ccc21`, the Potency is reported as inconclusive: 4.47 µM [inhibitor, partial curve, poor fit].
`COc1ccc(NC(=O)c2ccco2)cc1NC(=O)c1ccc(C)cc1` was tested, and the Potency was inconclusive: 25.1 µM [inhibitor, partial curve].
In the case of `O=C(N/N=C/c1cccc([N+](=O)[O-])c1)c1ccc2c(c1)OCCO2`, the Potency is reported as inconclusive: 14.1 µM [inhibitor, partial curve].
With `c1cnc2c(SCc3ccc(-c4nnco4)cc3)cccc2c1` the Potency was inconclusive: 1.58 µM [inhibitor, full curve].
With `CCOC(=O)N1CCN(c2nc(-c3ccc(OC)cc3)no2)CC1` the Potency was inconclusive: 4.47 µM [inhibitor, partial curve].
`COC(=O)c1cc(NC(=O)c2ccc(-c3ccccc3)cc2)ccc1Cl` was tested, and the Potency was inconclusive: 3.55 µM [inhibitor, single point].
`COc1ccc(C(=O)CSc2[nH]c(=O)cc(C(F)(F)F)c2C#N)cc1` was tested, and the Potency was inconclusive: 44.7 µM [inhibitor, single point].
In the case of `COc1ccc(OC)c(C(=O)CSc2nc3cccnc3n2C)c1`, the Potency is reported as “inactive”.
For `COc1ccc(C2CC(c3ccccc3)=NN2C(=O)c2cccs2)cc1` (configuration not stated), the Potency was “inactive”.
With `NCCn1c(-c2ccccc2)cc(C(=O)O)c1-c1ccccc1F` the Potency was “inactive”.
`CC(C)=CC[C@@H](O)C1=CC(=O)c2c(O)ccc(O)c2C1=O` was tested, and the Potency was active: 4.47 µM.
For `COc1ccc(CCNC(=O)c2cc(-c3cc(C)cc(C)c3O)n[nH]2)cc1OC`, the Potency was inconclusive: 5.01 µM [inhibitor, full curve].
With `Nc1ccc(N2CCOCC2)c2nonc12` the Potency was active: 14.1 µM.
With `Cc1ccc2c(c1)C(N1CCCC1=O)CC(c1ccco1)N2` (configuration not stated) the Potency was inconclusive: 25.1 µM [inhibitor, partial curve].
`CNC(=O)C1CCC(Cn2c(=O)c3sccc3n(CC(=O)NCc3ccc(C)cc3)c2=O)CC1` (configuration not stated) was tested, and the Potency was “inactive”.
With `O=c1c2nnn(Cc3ccc(Cl)cc3)c2ncn1Cc1ccc(F)cc1` the Potency was “inactive”.
In the case of `O=C(COc1ccccc1Cl)N1CCN(c2ccc([N+](=O)[O-])c(N3CCCCC3)c2)CC1`, the Potency is reported as inconclusive: 7.08 µM [inhibitor, partial curve].
`CN(C(=O)c1ccco1)c1nc2c(s1)CCCC2` was tested, and the Potency was inconclusive: 12.6 µM [inhibitor, partial curve].
In the case of `COc1cc(CN(C(=O)COc2ccc(Cl)cc2)c2ccccn2)cc(OC)c1OC`, the Potency is reported as “inactive”.
In the case of `Clc1ccc(-c2csc(-c3ccno3)n2)cc1`, the Potency is reported as “inactive”.
For `COc1ccc(OC)c(C2=NS(=O)(=O)N(C)C(C(=O)Nc3ccc(C(C)=O)cc3)=C2)c1`, the Potency was inconclusive: 2.24 µM [inhibitor, partial curve].
